The values below come from PubChem BioAssay AID1508642 (National Center for Advancing Translational Sciences (NCATS), 2021).

In all, about 43,000 compounds went through this assay and about 200 (0.47%) were called active. Inconclusive results (about 12%) are left out. The call rests on the fitted dose curve; in most records, active means well fitted cell-killing curve with a large enough effect; inconclusive means small, poorly fitted or top-dose-only effect, or effect the other way; inactive means flat fitted curve, though single readings scatter. This is one part of the list.
On the % scale 0 is the no-effect control and ±100 the full control effect.

The test can be described thus: Cell viability qHTS assay in S16 Pmp22-F2sN cells. Further: nearly all actives have a fitted effect of over 65% in size. As to conditions: S16 Pmp22-F2sN Schwann cells (luciferase reporters placed in the Pmp22 gene) viability, CellTiter-Glo, 24 h; series mostly up to 57.5 µM; activity change, negative = cytotoxicity: at the top concentration. In short, it runs like this:
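S16 Schwann cells carrying the Pmp22-F2sN reporter, seeded in 1536-well format, were exposed to library compounds for 24 h at 37C. Viability was read as CellTiter-Glo luminescence after 15 min at room temperature.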
On the technique in general: qHTS replaces the single test concentration by a dilution series.
Take `CC(C)N(Cc1nc(-c2ccc(Cl)cc2)no1)C(=O)c1ccc(C(C)(C)C)cc1`: the “activity change, negative = cytotoxicity” value was inactive: 10.7%.
Under `O=C(NCCc1csc(-c2cccnc2)n1)c1cccc(Cl)c1` stands inactive: -4.37%.
As to `Cc1ccc2ncc(C(=O)c3ccc(C)c(C)c3)c(S(=O)(=O)c3ccc(F)cc3)c2c1`, the “activity change, negative = cytotoxicity” value is inactive: -24.3%.
For `CCOc1ccc(CC(=O)NCCc2sc3nc(-c4ccc(F)cc4)nn3c2C)cc1`, the “activity change, negative = cytotoxicity” value was inactive: -4.7%.
With `CC1=C(c2ccc(Cl)cc2)S(=O)(=O)N=C1N1CCN(c2cccc(C)c2C)CC1`, the “activity change, negative = cytotoxicity” value is inactive: -1.24%.
Consider `COc1cccc(CN2C(=O)c3ccccc3Sc3ccc(C(=O)OCc4ccco4)cc32)c1`, for which the “activity change, negative = cytotoxicity” value is inactive: 18.5%.
On to `Cc1cccc(NC(=O)CSc2nc3ccc(NC(=O)c4ccccc4)cc3s2)c1`, for which the “activity change, negative = cytotoxicity” value is inactive: 11.2%.
For the compound `CCOc1ccc(-c2cc3nc(C4CCN(C(=O)OC(C)(C)C)CC4)c(C(=O)Nc4cccc(CC)c4)cn3n2)cc1`, the “activity change, negative = cytotoxicity” value was inactive: 13.6%.
Take `CC(=O)N1c2ccc(S(=O)(=O)N3CCCCCC3)cc2CC1C(=O)NCc1cccc(C)c1` (stereo unspecified): the “activity change, negative = cytotoxicity” value was inactive: 0.191%.
To `COc1cc(NC(=O)Cn2c(=O)cc(C)c3c(C)nn(-c4ccc(C)cc4)c32)cc(OC)c1` belongs inactive: 21%.
Consider `Cc1ccc(CNc2nnc(C)c3nnn(Cc4ccc(F)cc4)c23)cc1`, for which the “activity change, negative = cytotoxicity” value was inactive: -7.22%.
As for `CCC(=O)Oc1c(Sc2ccc(Cl)cc2)c(C)nn1-c1ccccc1`, the “activity change, negative = cytotoxicity” value was inactive: 3.63%.
`CCOc1ccc(NC(=O)CSC2=Nc3ccccc3C3=NC(CCC(=O)NCc4ccco4)C(=O)N23)cc1` (stereo unspecified): the “activity change, negative = cytotoxicity” value is inactive: 6.99%.
`Cc1ccc(-c2nc(CS(=O)(=O)CC(=O)Nc3ccc(Br)cc3F)c(C)o2)cc1`: the “activity change, negative = cytotoxicity” value was inactive: -1.57%.
In the case of `NC(=O)c1c(NC(=O)CS(=O)(=O)c2ccc(Cl)cc2)sc2c1CCCCC2`, the “activity change, negative = cytotoxicity” value is inactive: -3.45%.
Regarding `Cc1ccc(Nc2c(-c3ccc(Br)o3)nc3ccccn23)cc1`, the “activity change, negative = cytotoxicity” value is inactive: 0.846%.
Under `COc1ccc(S(=O)(=O)NCc2nc3nc(C)cc(C)n3n2)cc1` stands inactive: -7.69%.
To `COc1ccc2oc(=O)c(-c3nnc(-c4ccc(C)cc4)o3)cc2c1` belongs inactive: -5.69%.
`CCN(CC)S(=O)(=O)c1ccc2c(c1)N(CC(=O)NCc1ccccc1)C(=O)C1CCCCN21` (stereo unspecified): the “activity change, negative = cytotoxicity” value is inactive: -13.8%.
With `Cc1cc2c(cc1S(=O)(=O)Nc1ccc(OC(F)(F)F)cc1)OCC(=O)N2`, the “activity change, negative = cytotoxicity” value is inactive: -17.2%.
Consider `Cc1cc(Cl)ccc1NS(=O)(=O)c1c(C(=O)N2CCC(C)CC2)c(C)n(C)c1C`, for which the “activity change, negative = cytotoxicity” value is inactive: 0.65%.
Under `CC1CCCN(c2nc3c(-c4ccc(Cl)cc4)nnn3c3ccccc23)C1` (stereo unspecified) stands inactive: -0.183%.
As for `CCn1cc(S(=O)(=O)c2cccc(C)c2)c(=O)c2cc(F)c(N3CCCC(C)C3)cc21` (stereo unspecified), the “activity change, negative = cytotoxicity” value is inactive: -13.1%.
Take `O=C(c1ccc2c(c1)N(Cc1ccccc1F)C(=O)c1ccccc1S2(=O)=O)N1CCN(c2ccccn2)CC1`: the “activity change, negative = cytotoxicity” value was inactive: 20.8%.
To `CCOc1ccc(CNC(=O)C2CCCCN2S(=O)(=O)c2ccc(F)cc2)cc1OC` (stereo unspecified) belongs inactive: -15.6%; to `O=C(CCC(=O)c1ccc(F)cc1)Nc1ccc(Cl)cc1`, inactive: 0.333%.
For `O=C(CSc1n[nH]c(-c2ccccc2Cl)n1)NCc1ccc(F)cc1`, the “activity change, negative = cytotoxicity” value is inactive: -2.41%.
To `COc1ccc(-c2nc3c(c(SC)n2)Cc2c(CO)cnc(C)c2O3)cc1` belongs inactive: 12.9%.
To `CCn1c(=O)c2cc(C(=O)NCCCN3CCN(C)CC3)sc2c2ccccc21` belongs inactive: 11.8%; to `Cc1cc(C)cc(OCC(=O)Nc2c(C(=O)c3ccccc3)oc3ccccc23)c1`, inactive: 10.8%.
For `O=C(CCn1c(=O)c2cccn2c2cccnc21)Nc1ccccc1C(F)(F)F`, the “activity change, negative = cytotoxicity” value is inactive: 4.44%.
As to `CCC(=O)N1c2ccccc2CC1C(=O)NCc1cc(OC)ccc1OC` (stereo unspecified), the “activity change, negative = cytotoxicity” value was inactive: 13.9%.
As for `CCN(C(=O)Cn1c(=O)n(-c2ccccc2)c(=O)c2ccc(C(=O)NCc3ccc4c(c3)OCO4)cc21)c1cccc(C)c1`, the “activity change, negative = cytotoxicity” value is inactive: 5.09%.
Under `CCOc1ccc(NC(=O)c2cc(S(=O)(=O)N3CCc4ccccc43)ccc2F)cc1` stands inactive: -24.3%; under `CC(C)c1ccc(NC(=O)c2cc(S(=O)(=O)N(C)C3CCCCC3)ccc2F)cc1`, inactive: -11.6%; under `CCCCn1cnc2cc(NCc3ccc(OCC)cc3)ccc21`, inactive: -4.47%.
Under `O=C(CC1C(=O)N(c2ccc(F)cc2)C(=O)N1Cc1ccc2c(c1)OCO2)Nc1ccc(Cl)cc1` (stereo unspecified) stands inactive: 4.43%.
Under `Cc1ccc(-n2cc(C(=O)Oc3ccc(F)cc3)c3ccccc3c2=O)cc1` stands inactive: -2.11%.
`Cc1ccc2c(=O)cc(C(=O)Nc3ccc(S(=O)(=O)Nc4onc(C)c4C)cc3)oc2c1C`: the “activity change, negative = cytotoxicity” value is inactive: 6.43%.
Under `O=C(CSc1oc(-c2ccccc2)nc1S(=O)(=O)c1ccc(Cl)cc1)c1ccccc1` stands inactive: 3.25%.
In the case of `Cc1cc(C)nc(-n2nc(C)c3c2N(Cc2ccccc2)C(=O)CC3c2ccc(Cl)cc2)n1` (stereo unspecified), the “activity change, negative = cytotoxicity” value was inactive: -26.3%.
To `Cc1ccc(NC(=O)Nc2nnc(SCC(=O)Nc3ccc(F)cc3F)s2)cc1` belongs inactive: 0.198%.
Regarding `CCc1ccc(NC(=O)c2cc(S(=O)(=O)N3CCCCCC3)ccc2F)cc1`, the “activity change, negative = cytotoxicity” value was inactive: 15%.
As for `Cc1cccc(C)c1NC(=O)c1csc2c1CCCC2`, the “activity change, negative = cytotoxicity” value was inactive: 6.71%.
In the case of `COc1ccccc1NC(=O)C(=O)c1cc(C)n(-c2ccccc2F)c1C`, the “activity change, negative = cytotoxicity” value is inactive: -1.66%.
Under `O=C(NCCCc1nc2ccccc2n1Cc1cccc(Cl)c1)c1ccco1` stands inactive: 3.11%.
Turning to `CCCCN1CC(c2nc3ccccc3n2CCCCOc2ccc(C)cc2C)CC1=O` (stereo unspecified), the “activity change, negative = cytotoxicity” value is inactive: -15.9%.
Take `CC(=O)OCc1cnc(C)c2oc(=O)c(C(=O)Nc3cccc(F)c3)cc12`: the “activity change, negative = cytotoxicity” value was inactive: 6.63%.
Turning to `COc1cc(Cl)c(C)cc1NC(=O)c1cc2ccc3cccnc3c2[nH]1`, the “activity change, negative = cytotoxicity” value is inactive: -1.25%.
On to `O=C(c1cc(=O)c2cc(Cl)ccc2o1)N(Cc1ccccc1)C1CCS(=O)(=O)C1` (stereo unspecified), for which the “activity change, negative = cytotoxicity” value is inactive: 16.3%.
Consider `COc1ccc(NC(=O)CSc2nc3nc(C)c(Cc4ccc(C)cc4)c(C)n3n2)cc1OC`, for which the “activity change, negative = cytotoxicity” value was inactive: 0.24%.
As for `COc1ccc(Cl)cc1-n1nnc(-c2nc(-c3ccc4c(c3)OCO4)no2)c1C`, the “activity change, negative = cytotoxicity” value was inactive: -2.31%.
To `CCCNC(=O)C1CCC(Cn2c(=O)c3sccc3n(Cc3ccccc3C)c2=O)CC1` (stereo unspecified) belongs inactive: 6.47%.
In the case of `Cc1nc(N2CCCC2)c2c(C(=O)Nc3cccc(Cl)c3C)c(C)oc2n1`, the “activity change, negative = cytotoxicity” value was inactive: -2.1%.
As to `Cc1ccc(-n2ncc3c(NCCCc4ccccc4)ncnc32)cc1`, the “activity change, negative = cytotoxicity” value was inactive: 1.41%.
For `COc1cccc(NC(=O)c2oc3ccccc3c2NC(=O)c2ccc(C(F)(F)F)cc2)c1`, the “activity change, negative = cytotoxicity” value is inactive: 0.809%.
In the case of `O=C(CN1CCCN(Cc2ccc(Cl)cc2)S1(=O)=O)Nc1ccccc1F`, the “activity change, negative = cytotoxicity” value is inactive: 16.1%.
To `COc1cccc2c1Oc1ncccc1N(C(=O)CCC(=O)NCc1ccc(N(C)C)cc1)C2` belongs inactive: -0.452%; to `Cc1ccc(C)c(NC(=O)Cn2cc(C(=O)C3CCCCC3)c3ccccc32)c1`, inactive: -2.93%.
Under `Cc1ccc2[nH]c3c(=O)n(CC(=O)N(C)c4cc(Cl)ccc4C)ncc3c2c1` stands inactive: 0.135%.
As for `O=C(c1ccc2c(c1)N(Cc1cccc(Cl)c1)C(=O)c1ccccc1S2(=O)=O)N1CCCCC1`, the “activity change, negative = cytotoxicity” value was inactive: -16.7%.
